Experimental data published in the supplement of paper PMC11417369.
± gives the standard deviation of the averaged measurements. The list shows a part of the results.

The sequences below were run on PfAP2-G AP2 domain (GST-tagged) (assay: gcPBM binding intensity (ln(normalized median fluorescence intensity)); higher = stronger DNA binding).
Outline: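 An Agilent 4 × 180k array of primer-extended double-stranded 36-bp intergenic genomic probes, with negative controls, was incubated for 1 h with GST-tagged P. falciparum DNA-binding domains expressed in E. coli. Alexa488 anti-GST antibody detected bound protein, scanned at 488 nm. Binding intensity is the highest Masliner-normalised natural-log median intensity across replicate spots of either probe orientation.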

| Sequence | gcPBM binding intensity (ln) |
| --- | --- |
| TATATATATATGTGCACACATAAAGATATTATTTTT [CACACA_site3733] | 10.4 ± 0.48 |
| TTTTTTTTTTTTATTTGTACACATTTTCATATTTTT [XGTACX_site4406] | 11.3 ± 0.98 |
| TATATTTACTCTAAGTGTACATATTATTTTATAATA [XGTACX_site2046] | 11.4 ± 0.75 |
| GATCTATATATCATTACACACTTGAATTACTTAAAA [CACACA_site21] | 9.855 ± 0.092 |
| CAAAAATACATTATAATAATATGCACAATAATAAAT [XGTACX_negctrl_site263] | 10.03 ± 0.042 |
| ATAAAATAAAATTGGTGTACTTTTGATAAAATAAAA [XGTACX_site4264] | 11.4 ± 0.97 |
| TAACACATAAATAAATATATACATATATATAAAATA [CACACA_negctrl_site375] | 9.76 ± 0.12 |
| AATATATCATAATGATGTACAAGTAAAACCGTTACA [XGTACX_site4280] | 10.9 ± 0.53 |
| AATATATATATATATACATGCATATATTCCTTCCTT [TGCATGCA_site890] | 9.52 ± 0.071 |
| ATTCTTTTAAACAGTACACACACACCGATATATATA [CACACA_site8213] | 11.1 ± 0.64 |
| TTTGTGCCTATAAATTAACACACAGAAATATATAGA [CACACA_site8175] | 10.1 ± 0.21 |
| AAAAACTTATATGATACACACGATAAACAAAATAAA [CACACA_site1039] | 10.18 ± 0.064 |
| ATTATTATAGATATAACACACATAATTACATACTTA [CACACA_site6837] | 9.88 ± 0.11 |
| TATTTATTTATAAATGCATGTCGCTCTTTTTATTAC [TGCATGCA_site626] | 9.885 ± 0.092 |
| ATATATATATATATGTGTACATATAAGATAGAAGAA [XGTACX_site3198] | 11.5 ± 0.83 |
| TTATGCATAAAAGGTGGTACTCCGTATATACATTCT [XGTACX_site4354] | 11.4 ± 0.65 |
| AACTATAAAAGTTTTACACACTGTTTTTAAATAATG [CACACA_site7686] | 10.1 ± 0.021 |
| TATTAAAAAAAAAAATAAAAAAATAAAATAAAATAA [CACACA_negctrl_site580] | 9.4 ± 0.085 |
| AAAAGTAAAAAAAGCACACACGAAAAAAAATAAAAA [CACACA_site5264] | 10.1 ± 0.14 |
| TCCATAAATAATTGTAGTACACATACTATGTGACAT [XGTACX_site7268] | 11.6 ± 0.93 |
| TTTTTTAACTGTATGATGTTATATTAAAAATAAAAA [GTGCAC_negctrl_site463] | 9.79 ± 0.15 |
| AACGCACGAGGACACACACACATATTTATATTTATA [CACACA_site6608] | 11.4 ± 0.91 |

| Sequence | gcPBM binding intensity (ln) |
| --- | --- |
| ATTTATATATAATATACACACATATAATACCCATAT [CACACA_site4548] | 10.2 ± 0.19 |
| TTTCAAATTTAATACACACACAAGTATATATCTATC [CACACA_site7782] | 9.91 ± 0.042 |
| ATATATTTTATATAATGTACATAAACCGCACACATA [XGTACX_site6061] | 11.1 ± 0.59 |
| ATTTAAAAAAAAAAAAAAAAAAAAAAAAAAAGAAAA [CACACA_negctrl_site722] | 9.65 ± 0.085 |
| TTTAATATTAGCATATGTACACAAATCACACGGAAA [XGTACX_site2473] | 11.4 ± 0.81 |
| TATATTATGACCACCACACACCTATACACATAACAT [CACACA_site7199] | 11.4 ± 0.91 |
| TAATCCTTTCAATATTGTACACATTTGTGTTAAGAA [XGTACX_site1275] | 11.4 ± 0.99 |
| ATTTAATTTGTTCTTACACACACATATATATATATT [CACACA_site8310] | 10.2 ± 0.11 |
| ATAATATAAATACAAACACACAATTGCGTCCACATT [CACACA_site5039] | 11.6 ± 0.93 |
| TCATACGAAATATAAACACACATACAATAAATAAAT [CACACA_site5156] | 9.92 ± 0.042 |
| ATATTAAATGTTATCACACACATAATTACTTCCATA [CACACA_site7160] | 10.1 ± 0.13 |
| TATTAAATGGCCATTACATGCAATTATTTCTAATAA [TGCATGCA_site275] | 10 ± 0.19 |
| GGACAAGAATAGTGCACATGCAATGTTATTTTTTAT [TGCATGCA_site450] | 10.46 ± 0.064 |
| ATTATAACCATATACACACCCATATAAATAAATATA [CACACA_site6926] | 10.17 ± 0.099 |
| CGTTTTAATAAGATCACACATATAATATATATATAT [CACACA_site5159] | 9.88 ± 0.18 |
| TCAAATATATAGAATACACACATGGATATAAGAAAT [CACACA_site4065] | 9.99 ± 0.057 |
| TATATATATACATATTGTACATGTGTATATTTTTTT [XGTACX_site361] | 11 ± 0.49 |
| TTAGTTATTAAAAAAAGTACATAAGTAGATATCATC [XGTACX_site8712] | 11.4 ± 1 |
| AAAATTTAATATAATGCACACATAAAAAAAAAAAAA [CACACA_site7923] | 9.99 ± 0.42 |
| CCATTTTTTTTATACGCACACGTCATACTTTTAAAA [CACACA_site4988] | 10.7 ± 0.33 |
| ACATATGAATATAATACACACTTGTATTATTAATAT [CACACA_site8546] | 9.94 ± 0.17 |
| TTACCTTTATTGTATGAACACACATAAGCTGATACA [CACACA_site9334] | 10.1 ± 0.2 |
